# Reference: the supplement of paper PMC8728848
# The other results are listed elsewhere or left out.
# B1: Gal 1 (Mus musculus), P16045 (protein)
# chain: MACGLVASNLNLKPGECLKVRGEVASDAKSFVLNLGKDSNNLCLHFNPRFNAHGDANTIVCNTKEDGTWGTEHREPAFPFQPGSITEVCITFDQADLTIKLPDGHEFKFPNRLNMEAINYMAADGDFKIKCVAFE
# How the values were obtained:
# Assay in all cases: glycan array binding signal (z-score within array); higher = stronger binding
# Conditions in all cases: glycan notation: IUPAC condensed, linker removed
# [1] = target: Gal(b1-4)GlcNAc(b1-3)Gal(b1-4)GlcNAc(b1-3)Gal(b1-4)GlcNAc(b1-3)Gal(b1-4)GlcNAc(b1-3)Gal(b1-4)GlcNAc(b1-2)Man(a1-3)[Gal(b1-4)GlcNAc(b1-3)Gal(b1-4)GlcNAc(b1-3)Gal(b1-4)GlcNAc(b1-3)Gal(b1-4)GlcNAc(b1-3)Gal(b1-4)GlcNAc(b1-2)Man(a1-6)]Man(b1-4)GlcNAc(b1-4)[Fuc(a1-6)]GlcNAc
# Summary of the method: (§1)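 Glycan array data came from 3228 arrays in the Consortium for Functional Glycomics database, and only arrays with an available protein sequence were kept. Glycan names were put into IUPAC-condensed notation, and columns mapping to the same glycan were averaged. The binding signal is a within-array Z-score, averaged across arrays of one protein sequence run at different concentrations or buffers and across linkers. A negative Z-score can be read as non-binding.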
# [2] = target: Gal(b1-4)GlcNAc(b1-3)Gal(b1-4)GlcNAc(b1-3)Gal(b1-4)GlcNAc(b1-3)Gal(b1-4)GlcNAc(b1-3)Gal(b1-4)GlcNAc(b1-2)[Gal(b1-4)GlcNAc(b1-3)Gal(b1-4)GlcNAc(b1-3)Gal(b1-4)GlcNAc(b1-3)Gal(b1-4)GlcNAc(b1-3)Gal(b1-4)GlcNAc(b1-6)]Man(a1-6)[Gal(b1-4)GlcNAc(b1-3)Gal(b1-4)GlcNAc(b1-3)Gal(b1-4)GlcNAc(b1-3)Gal(b1-4)GlcNAc(b1-3)Gal(b1-4)GlcNAc(b1-2)Man(a1-3)]Man(b1-4)GlcNAc(b1-4)[Fuc(a1-6)]GlcNAc
# Summary of the method: as §1
# [3] = target: Gal(b1-4)GlcNAc(b1-3)Gal(b1-4)GlcNAc(b1-3)Gal(b1-4)GlcNAc(b1-3)Gal(b1-4)GlcNAc(b1-3)Gal(b1-4)GlcNAc(b1-3)Gal(b1-4)GlcNAc(b1-2)Man(a1-3)[Gal(b1-4)GlcNAc(b1-3)Gal(b1-4)GlcNAc(b1-3)Gal(b1-4)GlcNAc(b1-3)Gal(b1-4)GlcNAc(b1-3)Gal(b1-4)GlcNAc(b1-3)Gal(b1-4)GlcNAc(b1-2)Man(a1-6)]Man(b1-4)GlcNAc(b1-4)GlcNAc
# Summary of the method: as §1
# [4] = target: Gal(b1-4)GlcNAc(b1-3)Gal(b1-4)GlcNAc(b1-3)GalNAc
# Summary of the method: as §1
# [5] = target: Gal(b1-4)GlcNAc(b1-3)Gal(b1-4)GlcNAc(b1-3)[Gal(b1-4)GlcNAc(b1-3)Gal(b1-4)GlcNAc(b1-6)]GalNAc
# Summary of the method: as §1
# [6] = target: Gal(b1-4)GlcNAc(b1-3)Gal(b1-4)GlcNAc(b1-6)[Gal(b1-3)]GalNAc
# Summary of the method: as §1
# [7] = target: Gal(b1-4)GlcNAc(b1-3)Gal(b1-4)[Fuc(a1-3)GlcNAc(b1-6)]Gal(b1-4)Glc
# Summary of the method: as §1
# [8] = target: Gal(b1-4)GlcNAc(b1-3)Gal(b1-4)[Fuc(a1-3)]GlcNAc(b1-3)Gal(b1-4)[Fuc(a1-3)]GlcNAc
# Summary of the method: as §1
# [9] = target: Gal(b1-4)GlcNAc(b1-3)GalNAc
# Summary of the method: as §1
# [10] = target: Gal(b1-4)GlcNAc(b1-3)[Fuc(a1-3)GlcNAc(b1-6)]Gal(b1-4)Glc
# Summary of the method: as §1
# [11] = target: Gal(b1-4)GlcNAc(b1-3)[Gal(b1-4)GlcNAc(b1-6)]Gal(b1-4)GlcNAc
# Summary of the method: as §1
# [12] = target: Gal(b1-4)GlcNAc(b1-3)[Gal(b1-4)GlcNAc(b1-6)]GalNAc
# Summary of the method: as §1
# [13] = target: Gal(b1-4)GlcNAc(b1-3)[GlcNAc(b1-6)]Gal(b1-4)GlcNAc
# Summary of the method: as §1
# [14] = target: Gal(b1-4)GlcNAc(b1-6)Gal(b1-4)GlcNAc
# Summary of the method: as §1
# [15] = target: Gal(b1-4)GlcNAc(b1-6)GalNAc
# Summary of the method: as §1
# [16] = target: Gal(b1-4)GlcNAc(b1-6)[Gal(b1-3)]GalNAc
# Summary of the method: as §1
# [17] = target: Gal(b1-4)GlcNAc(b1-6)[Gal(b1-4)GlcNAc(b1-3)]GalNAc
# Summary of the method: as §1
# Gal(b1-4)GlcNAc6P = target: Gal(b1-4)GlcNAc6P
# Summary of the method: as §1
# Gal(b1-6)Gal = target: Gal(b1-6)Gal
# Summary of the method: as §1
# Gal3S(b1-3)GalNAc = target: Gal3S(b1-3)GalNAc
# Summary of the method: as §1
# Gal3S(b1-3)GlcNAc = target: Gal3S(b1-3)GlcNAc
# Summary of the method: as §1
# [18] = target: Gal3S(b1-3)[Fuc(a1-4)]GlcNAc
# Summary of the method: as §1
# Gal3S(b1-4)Glc = target: Gal3S(b1-4)Glc
# Summary of the method: as §1
binder,measurement,setting,value
B1,glycan array binding signal (z-score),[1],2.24
same,glycan array binding signal (z-score),[2],3.46
same,glycan array binding signal (z-score),[3],1.44
same,glycan array binding signal (z-score),[4],0.944
same,glycan array binding signal (z-score),[5],1.04
same,glycan array binding signal (z-score),[6],0.926
same,glycan array binding signal (z-score),[7],-0.189
same,glycan array binding signal (z-score),[8],0.152
same,glycan array binding signal (z-score),[9],-0.123
same,glycan array binding signal (z-score),[10],-0.015
same,glycan array binding signal (z-score),[11],0.453
same,glycan array binding signal (z-score),[12],-0.16
same,glycan array binding signal (z-score),[13],-0.057
same,glycan array binding signal (z-score),[14],-0.27
same,glycan array binding signal (z-score),[15],-0.252
same,glycan array binding signal (z-score),[16],-0.218
same,glycan array binding signal (z-score),[17],-0.011
same,glycan array binding signal (z-score),Gal(b1-4)GlcNAc6P,-0.379
same,glycan array binding signal (z-score),Gal(b1-6)Gal,-0.105
same,glycan array binding signal (z-score),Gal3S(b1-3)GalNAc,0.039
same,glycan array binding signal (z-score),Gal3S(b1-3)GlcNAc,2.76
same,glycan array binding signal (z-score),[18],-0.223
same,glycan array binding signal (z-score),Gal3S(b1-4)Glc,1.43
